Where “and” joins values, the source holds several entries; their conditions need not be identical. Identical values can stand only once. The inconclusive results got no clear call from the source; some entries with a clear call stand among them for comparison. For some assays here: A potency beside an inconclusive call is a rough fit, not a confirmed value. More than one record can exist for a structure, and the calls need not agree. Calls of active or inactive are those of the source. Unless noted, the call rests on the fitted dose curve; in most records, active means well fitted curve in the direction sought with a large enough effect in the repeat runs; inconclusive means weak or mixed curves; inactive means no such curve, though single readings can be large; an effect the other way counts as inactive or inconclusive.
Columns and labels:
[1] = qHTS assay to identify small molecule agonists of the hypoxia (HIF-1) signaling pathway (AID 1224846; active means well fitted activation curve with a large enough effect in the signal ratio in the repeat runs, not every such curve was filed as active; inconclusive means weak or mixed curves; the % refers to the signal ratio; further: potency means the concentration at half of the fitted maximal effect; on activation: on the % scale 0 is the no-effect control and ±100 the full control effect); conditions: HRE-bla ME-180 cells, beta-lactamase ratio, 17 h; activation: at 76.8 µM (top of the series) unless noted
Outline: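 Reporter induction in HRE-bla ME-180 cells is taken as agonism: cells sit 5 hrs after plating, receive compounds or DMSO only, incubate 17 hrs at 37C under 5% CO2, and are loaded with CCF4-AM for beta-lactamase FRET measurement.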

[2] = qHTS RealTime-Glo MT Cell Viability Assay in HEK293 cells - 32 hour (AID 1224868); further: nearly all actives have a fitted effect of over 50% in size; further: potency means the concentration at half of the fitted maximal effect
Outline: (§1)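 HEK293 cells seeded with NanoLuc/prosubstrate reagent, rested 5 h at 37 C, then dosed and kept at 37 C up to 40 h. Nonlytic real-time luminescence from viable cells read at 0, 8, 16, 24, 32 and 40 h.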

[3] = qHTS RealTime-Glo MT Cell Viability Assay in HEK293 cells - 40 hour (AID 1224874); conditions: RealTime-Glo luminescence; max response: stronger effect = lower value; further: potency means the concentration at half of the fitted maximal effect; nearly all actives have a fitted effect of over 50% in size
Outline: (§2)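 HEK293 + NanoLuc + prosubstrate, 600 cells/well; 5 h, 37 C/5% CO2; compound 23 nL in DMSO by pintool; 37 C; luminescence read at 0, 8, 16, 24, 32 and 40 h time points.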

[4] = A CellTox Green Cytotoxicity Assay to monitor cytotoxicity in HepG2 cells - 40 hour (AID 1224879); further: potency means the concentration at half of the fitted maximal effect; nearly all actives have a fitted effect of over 40% in size
Outline: (§3)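 Measurements at 0, 8, 16, 24, 32 and 40 h of treatment captured CellTox Green fluorescence in HepG2 cells that had been co-plated with reagent and preincubated 5 h at 37 C/5% CO2.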

[5] = A CellTox Green Cytotoxicity Assay to monitor cytotoxicity in HEK293 cells - 32 hour (AID 1224881); further: nearly all actives have a fitted effect of over 40% in size; further: potency means the concentration at half of the fitted maximal effect
Outline: (§4)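 Tox21 screen in HEK293: membrane-impermeant cyanine dye fluoresces on binding dead-cell DNA; compound pinned 5 h post-seeding, plates held at 37 C, signal read repeatedly through 40 h.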

[6] = qHTS RealTime-Glo MT Cell Viability Assay in HepG2 cells - 24 hour (AID 1224867); further: nearly all actives have a fitted effect of over 50% in size; further: potency means the concentration at half of the fitted maximal effect
Outline: (§5)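 HepG2 cells (600/well) were dispensed with RealTime-Glo reagents, incubated 5 h at 37 °C, then treated with compounds in DMSO for up to 40 h. Nonlytic NanoLuc luminescence reflecting viable cells was read at each stated time point.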

[7] = qHTS RealTime-Glo MT Cell Viability Assay in HEK293 cells - 16 hour (AID 1224872); further: nearly all actives have a fitted effect of over 50% in size; further: potency means the concentration at half of the fitted maximal effect
Outline: as §1

[8] = A CellTox Green Cytotoxicity Assay to monitor cytotoxicity in HEK293 cells - 24 hour (AID 1224875); further: potency means the concentration at half of the fitted maximal effect; nearly all actives have a fitted effect of over 45% in size
Outline: as §4

[9] = qHTS RealTime-Glo MT Cell Viability Assay in HepG2 cells - 32 hour (AID 1224877); further: nearly all actives have a fitted effect of over 55% in size; further: potency means the concentration at half of the fitted maximal effect
Outline: as §5

[10] = A CellTox Green Cytotoxicity Assay to monitor cytotoxicity in HepG2 cells - 24 hour (AID 1224878); further: nearly all actives have a fitted effect of over 45% in size; further: potency means the concentration at half of the fitted maximal effect; on Cytotoxicity: on the % scale 0 is the no-effect control and ±100 the full control effect
Outline: as §3

[11] = A CellTox Green Cytotoxicity Assay to monitor cytotoxicity in HEK293 cells - 40 hour (AID 1224871); further: potency means the concentration at half of the fitted maximal effect; nearly all actives have a fitted effect of over 45% in size
Outline: as §4

[12] = qHTS assay to identify small molecule antagonists of the estrogen related receptor (ERR) signaling pathway from Tox21 library (AID 1224848)
Outline: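 Compounds dissolved in DMSO are pin-transferred onto ERR reporter cells (2,000 per well) that have settled for 6 h at 37 C. Plates then incubate 18 h at 37 C before ONE-Glo luciferase reagent and a luminescence read 30 min later.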

[13] = A CellTox Green Cytotoxicity Assay to monitor cytotoxicity in HepG2 cells - 16 hour (AID 1224876); further: potency means the concentration at half of the fitted maximal effect; nearly all actives have a fitted effect of over 45% in size
Outline: as §3

[14] = qHTS RealTime-Glo MT Cell Viability Assay in HEK293 cells - 0 hour (AID 1224880); further: nearly all actives have a fitted effect of over 45% in size; further: potency means the concentration at half of the fitted maximal effect
Outline: as §2

[15] = qHTS assay to identify small molecule agonists of the estrogen related receptor (ERR) signaling pathway from Tox21 library (AID 1224849; calls by dose curve; further: on the % scale 0 is the no-effect control and ±100 the full control effect; nearly all actives have a fitted effect of over 15% in size); conditions: ERR reporter cell line, ONE-Glo luciferase, 18 h; at 92.4 µM (top of the series)
Outline: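 Tox21 compounds tested for ERR agonism in an NTP reporter cell line: 18 h treatment at 37 C, then ONE-Glo luminescence.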

[16] = A CellTox Green Cytotoxicity Assay to monitor cytotoxicity in HEK293 cells - 0 hour (AID 1224869)
Outline: as §4
Tags describe the fitted curve by direction and shape or compound fluorescence and quenching.

Question: With CCCOC(=O)c1ccc(O)cc1 as the compound, how does the Potency [1] read?
Answer: Its Potency is inconclusive: 38.9 µM [falling, partial curve].

Question: What about the Potency [2] of the same compound?
Answer: Its Potency is inconclusive: 4.9 µM [cytotoxic, full curve].

Question: And the Potency [3]?
Answer: Its Potency is inconclusive: 24.5 µM [cytotoxic, partial curve, poor fit].

Question: And the Potency [4]?
Answer: Its Potency is inconclusive: 54.9 µM [activator, single point].

Question: What does the source list for CC1COc2ccccc2N1C(=O)C(Cl)Cl (centres undefined)?
Answer: Potency [1]: inactive; Potency [2]: inactive and inconclusive: 34.6 µM [cytotoxic, partial curve]; Potency [3]: inconclusive: 34.6 µM [cytotoxic, partial curve]; Potency [5]: inactive

Question: Which Potency [1] does the source give for O=C(Nc1ccc(Cl)c(Cl)c1)c1cc(Cl)cc(Cl)c1O here?
Answer: The Potency was inconclusive: 19.5 µM [falling, partial curve].

Question: What about the Potency [6] of the same compound?
Answer: The Potency was inconclusive: 5.49 µM [falling, full curve].

Question: What about the Potency [2] of the same compound?
Answer: Its Potency is active: 4.9 µM.

Question: What about the Potency [7] of the same compound?
Answer: The Potency was inconclusive: 4.9 µM [cytotoxic, full curve].

Question: And the Potency [8]?
Answer: Its Potency is inconclusive: 49 µM [activator, single point].

Question: What about the Potency [9] of the same compound?
Answer: Its Potency is inconclusive: 9.77 µM [cytotoxic, partial curve].

Question: What about the Potency [10] of the same compound?
Answer: Its Potency is active: 9.77 µM.

Question: And the Potency [5]?
Answer: The Potency was inconclusive: 13.8 µM [activator, single point].

Question: Which Potency [1] does the source give for COC(=O)c1cccc(C(=O)OC)c1 here?
Answer: The Potency was “inactive”.

Question: What about the Potency [11] of the same compound?
Answer: Its Potency is active: 38.9 µM.

Question: What about the Potency [10] of the same compound?
Answer: The Potency was “inactive and active: 38.9 µM”.

Question: What about the Potency [4] of the same compound?
Answer: Its Potency is active: 24.5 µM.

Question: Which results are given for CC(C)(C)C1CCC(CC2=C(O)c3ccccc3C(=O)C2=O)CC1 (centres undefined)?
Answer: Potency [1]: inactive; Potency [12]: inconclusive: 2.11 µM [inhibitor, full curve]; Potency [6]: inactive; Potency [2]: inactive; Potency [11]: active: 16.9 µM; Potency [7]: inconclusive: 8.49 µM [rising, full curve]; Potency [8]: inconclusive: 21.3 µM [activator, partial curve]; Potency [13]: inconclusive: 19 µM [activator, partial curve, poor fit]; Potency [10]: inconclusive: 21.3 µM [activator, single point]

Question: With CCCCCCCCCCCCOC(C)=O as the compound, how does the Potency [1] read?
Answer: Its Potency is “inactive”.

Question: And the Potency [2]?
Answer: The Potency was inconclusive: 21.9 µM [cytotoxic, partial curve, poor fit].

Question: And the Potency [3]?
Answer: The Potency was inconclusive: 24.5 µM [cytotoxic, partial curve, poor fit].

Question: What about the Potency [14] of the same compound?
Answer: The Potency was “inactive”.

Question: For CCC(O)OC(O)CC (centres undefined), which activation [1] is on record?
Answer: The activation was inconclusive: 10.1%.

Question: What about the Potency [7] of the same compound?
Answer: Its Potency is “inactive”.

Question: Which Potency [1] does the source give for Cc1cccc(C(=O)O)c1 here?
Answer: Its Potency is “inactive”.

Question: What about the Potency [7] of the same compound?
Answer: Its Potency is “inactive”.

Question: Which Potency [1] does the source give for O=C(NS(=O)(=O)/C=C/c1ccccc1)c1ccc(F)cc1Cl here?
Answer: Its Potency is “inactive”.

Question: What about the activity change, positive = activation [15] of the same compound?
Answer: Its activity change, positive = activation is inconclusive: 13.2%.

Question: And the Potency [2]?
Answer: Its Potency is inconclusive: 12.3 µM [cytotoxic, full curve].

Question: And the Potency [3]?
Answer: Its Potency is inconclusive: 12.3 µM [cytotoxic, full curve].

Question: What about the Potency [13] of the same compound?
Answer: The Potency was inconclusive: 43.6 µM [activator, partial curve, poor fit].

Question: And the Potency [10]?
Answer: Its Potency is active: 54.9 µM.

Question: And the Potency [14]?
Answer: Its Potency is active: 12.3 µM.

Question: With O=C(CCS)OCC(COC(=O)CCS)(COC(=O)CCS)COC(=O)CCS as the compound, how does the Potency [1] read?
Answer: The Potency was inconclusive: 61.6 µM [falling, partial curve, poor fit].

Question: What about the Potency [2] of the same compound?
Answer: The Potency was inconclusive: 49 µM [cytotoxic, partial curve, poor fit].

Question: What about the Potency [7] of the same compound?
Answer: The Potency was inconclusive: 54.9 µM [cytotoxic, partial curve].

Question: What about the Potency [3] of the same compound?
Answer: Its Potency is inconclusive: 0.195 µM [cytotoxic, single point].

Question: What about the Potency [9] of the same compound?
Answer: The Potency was “inactive”.

Question: Which Potency [1] does the source give for Cc1c(C)c2c(c(C)c1OC(=O)CCC(=O)O)CC[C@@](C)(CCC[C@H](C)CCC[C@H](C)CCCC(C)C)O2 here?
Answer: Its Potency is inconclusive: 24.8 µM [falling, partial curve].

Question: And the Potency [6]?
Answer: The Potency was inconclusive: 55.6 µM [falling, single point].

Question: What about the Potency [2] of the same compound?
Answer: Its Potency is inconclusive: 24.8 µM [cytotoxic, partial curve].

Question: What about the Potency [16] of the same compound?
Answer: The Potency was “inactive”.

Question: And the Potency [11]?
Answer: Its Potency is inconclusive: 55.6 µM [activator, single point].

Question: What about the Potency [3] of the same compound?
Answer: Its Potency is inconclusive: 24.8 µM [cytotoxic, partial curve].

Question: And the Potency [9]?
Answer: Its Potency is active: 55.6 µM.

Question: And the Potency [10]?
Answer: Its Potency is inconclusive: 62.4 µM [activator, partial curve, poor fit].

Question: And the Potency [4]?
Answer: The Potency was inconclusive: 55.6 µM [activator, single point].

Question: And the Potency [14]?
Answer: Its Potency is inconclusive: 27.9 µM [falling, partial curve].

Source: PubChem BioAssay (Tox21)
